For 31 molecules, binding signal results are on record in article PMC9911399, “Two distinct binding modes provide the RNA-binding protein RbFox with extraordinary sequence specificity”.

First the molecules themselves.
T1: RBFOX1 RRM RbFoxmut (Fox-RRM*) (Homo sapiens, UniProt Q9NWB1 109-208, R118D;E147R;N151S;E152T)
T1 sequence: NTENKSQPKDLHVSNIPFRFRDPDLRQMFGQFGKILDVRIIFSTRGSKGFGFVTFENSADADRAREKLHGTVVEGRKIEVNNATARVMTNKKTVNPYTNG

B1: CGCGAUU (DNA:RNA)
RNA: GGGAGACCGGAAUUCAGAUUGUCCCGCGAUUUUAAAUCCCGUCGUAGCCACCA
DNA 1: CAATCTGAATTCCGGTCTCCC
DNA 2: TGGTGGCTACGACGGGATT
B2: ACGAUAA (DNA:RNA)
RNA: GGGAGACCGGAAUUCAGAUUGUCCACGAUAAUUAAAUCCCGUCGUAGCCACCA
DNA 1: CAATCTGAATTCCGGTCTCCC
DNA 2: TGGTGGCTACGACGGGATT
B3: GUUCGAG (DNA:RNA)
RNA: B2 RNA with A25G, C26U, G27U, A28C, U29G, A31G
DNA 1: CAATCTGAATTCCGGTCTCCC
DNA 2: TGGTGGCTACGACGGGATT
B4: UUGGCAU (DNA:RNA)
RNA: B2 RNA with A25U, C26U, A28G, U29C, A31U
DNA 1: CAATCTGAATTCCGGTCTCCC
DNA 2: TGGTGGCTACGACGGGATT
B5: CCCUGGG (DNA:RNA)
RNA: B1 RNA with G26C, G28U, A29G, U30G, U31G
DNA 1: CAATCTGAATTCCGGTCTCCC
DNA 2: TGGTGGCTACGACGGGATT
B6: GAGCGGU (DNA:RNA)
RNA: B2 RNA with A25G, C26A, A28C, U29G, A30G, A31U
DNA 1: CAATCTGAATTCCGGTCTCCC
DNA 2: TGGTGGCTACGACGGGATT
B7: CGGUCGG (DNA:RNA)
RNA: B1 RNA with C27G, G28U, A29C, U30G, U31G
DNA 1: CAATCTGAATTCCGGTCTCCC
DNA 2: TGGTGGCTACGACGGGATT
B8: AAAAUUC (DNA:RNA)
RNA: B2 RNA with C26A, G27A, A30U, A31C
DNA 1: CAATCTGAATTCCGGTCTCCC
DNA 2: TGGTGGCTACGACGGGATT
B9: CUGCGAU (DNA:RNA)
RNA: B2 RNA with A25C, C26U, A28C, U29G, A31U
DNA 1: CAATCTGAATTCCGGTCTCCC
DNA 2: TGGTGGCTACGACGGGATT
B10: UUGUGAU (DNA:RNA)
RNA: B2 RNA with A25U, C26U, A28U, U29G, A31U
DNA 1: CAATCTGAATTCCGGTCTCCC
DNA 2: TGGTGGCTACGACGGGATT
B11: GUGUGUA (DNA:RNA)
RNA: B2 RNA with A25G, C26U, A28U, U29G, A30U
DNA 1: CAATCTGAATTCCGGTCTCCC
DNA 2: TGGTGGCTACGACGGGATT
B12: GCACCGU (DNA:RNA)
RNA: B2 RNA with A25G, G27A, A28C, U29C, A30G, A31U
DNA 1: CAATCTGAATTCCGGTCTCCC
DNA 2: TGGTGGCTACGACGGGATT
B13: UACGCAG (DNA:RNA)
RNA: B1 RNA with C25U, G26A, A29C, U30A, U31G
DNA 1: CAATCTGAATTCCGGTCTCCC
DNA 2: TGGTGGCTACGACGGGATT
B14: GGGUACC (DNA:RNA)
RNA: B1 RNA with C25G, C27G, G28U, U30C, U31C
DNA 1: CAATCTGAATTCCGGTCTCCC
DNA 2: TGGTGGCTACGACGGGATT
B15: AUCAGAC (DNA:RNA)
RNA: B2 RNA with C26U, G27C, U29G, A31C
DNA 1: CAATCTGAATTCCGGTCTCCC
DNA 2: TGGTGGCTACGACGGGATT
B16: AAUUCUA (DNA:RNA)
RNA: B2 RNA with C26A, G27U, A28U, U29C, A30U
DNA 1: CAATCTGAATTCCGGTCTCCC
DNA 2: TGGTGGCTACGACGGGATT
B17: CCAAAGG (DNA:RNA)
RNA: B2 RNA with A25C, G27A, U29A, A30G, A31G
DNA 1: CAATCTGAATTCCGGTCTCCC
DNA 2: TGGTGGCTACGACGGGATT
B18: AAUUCGC (DNA:RNA)
RNA: B2 RNA with C26A, G27U, A28U, U29C, A30G, A31C
DNA 1: CAATCTGAATTCCGGTCTCCC
DNA 2: TGGTGGCTACGACGGGATT
B19: GUCUAUA (DNA:RNA)
RNA: B1 RNA with C25G, G26U, G28U, U31A
DNA 1: CAATCTGAATTCCGGTCTCCC
DNA 2: TGGTGGCTACGACGGGATT
B20: GAACCAA (DNA:RNA)
RNA: B2 RNA with A25G, C26A, G27A, A28C, U29C
DNA 1: CAATCTGAATTCCGGTCTCCC
DNA 2: TGGTGGCTACGACGGGATT
B21: UUUCCUG (DNA:RNA)
RNA: B1 RNA with C25U, G26U, C27U, G28C, A29C, U31G
DNA 1: CAATCTGAATTCCGGTCTCCC
DNA 2: TGGTGGCTACGACGGGATT
B22: CAUUUUA (DNA:RNA)
RNA: B2 RNA with A25C, C26A, G27U, A28U, A30U
DNA 1: CAATCTGAATTCCGGTCTCCC
DNA 2: TGGTGGCTACGACGGGATT
B23: GCCCCCU (DNA:RNA)
RNA: B1 RNA with C25G, G26C, G28C, A29C, U30C
DNA 1: CAATCTGAATTCCGGTCTCCC
DNA 2: TGGTGGCTACGACGGGATT
B24: CCGAACU (DNA:RNA)
RNA: B2 RNA with A25C, U29A, A30C, A31U
DNA 1: CAATCTGAATTCCGGTCTCCC
DNA 2: TGGTGGCTACGACGGGATT
B25: CCAUUUA (DNA:RNA)
RNA: B2 RNA with A25C, G27A, A28U, A30U
DNA 1: CAATCTGAATTCCGGTCTCCC
DNA 2: TGGTGGCTACGACGGGATT
B26: GAGUAUA (DNA:RNA)
RNA: B2 RNA with A25G, C26A, A28U, U29A, A30U
DNA 1: CAATCTGAATTCCGGTCTCCC
DNA 2: TGGTGGCTACGACGGGATT
B27: AUUAGGC (DNA:RNA)
RNA: B2 RNA with C26U, G27U, U29G, A30G, A31C
DNA 1: CAATCTGAATTCCGGTCTCCC
DNA 2: TGGTGGCTACGACGGGATT
B28: AUAGCCG (DNA:RNA)
RNA: B2 RNA with C26U, G27A, A28G, U29C, A30C, A31G
DNA 1: CAATCTGAATTCCGGTCTCCC
DNA 2: TGGTGGCTACGACGGGATT
B29: AACACGU (DNA:RNA)
RNA: B2 RNA with C26A, G27C, U29C, A30G, A31U
DNA 1: CAATCTGAATTCCGGTCTCCC
DNA 2: TGGTGGCTACGACGGGATT
B30: GGUGUUC (DNA:RNA)
RNA: B1 RNA with C25G, C27U, A29U, U31C
DNA 1: CAATCTGAATTCCGGTCTCCC
DNA 2: TGGTGGCTACGACGGGATT
B31: UCCAACG (DNA:RNA)
RNA: B2 RNA with A25U, G27C, U29A, A30C, A31G
DNA 1: CAATCTGAATTCCGGTCTCCC
DNA 2: TGGTGGCTACGACGGGATT

Residue numbers refer to the chain shown, from its start. Some of the results follow.

The test addresses T1, RBFOX1 RRM RbFoxmut (Fox-RRM*). Kind of test: EMSA; HiTS-Eq, 1 nM pool, 10 min; buffer printed only for the single-RNA assays: 10 mM Tris pH 7.5, 150 mM NaCl, 3.4 mM EDTA, 0.001% NP-40, 30 C. To be noted: tags: His6 N-terminal (pET28a); label: 5' 32P. In a few lines: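 These values rest on relative association constants, computed from read-count changes of each RNA species versus the control reaction and normalised to the cognate motif. Reads came from free RNA recovered by 8% native PAGE after purified RbFox RRM (wild type or mutant) at increasing concentrations was equilibrated for 10 min in 50 µL with 1 nM of a 5′-radiolabelled pool with 7 randomized nucleotides and DNA-annealed flanks.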
A general note: Mobility shift assays separate free from complexed probe on a gel.
In the case of B1, the binding signal was 0.0801 KA relative to UGCAUGU.
With B2 the figure was 0.0818 KA relative to UGCAUGU; with B3, 0.151 KA relative to UGCAUGU.
With B4 the figure was 0.11 KA relative to UGCAUGU; with B5, 0.0791 KA relative to UGCAUGU.
The result for B6 reads 0.114 KA relative to UGCAUGU; that for B7, 0.096 KA relative to UGCAUGU; that for B8, 0.0842 KA relative to UGCAUGU.
With B9, the binding signal was 0.0642 KA relative to UGCAUGU.
With B10 the figure was 0.0831 KA relative to UGCAUGU; with B11, 0.371 KA relative to UGCAUGU; with B12, 0.172 KA relative to UGCAUGU.
The result for B13 reads 0.06 KA relative to UGCAUGU; that for B14, 0.119 KA relative to UGCAUGU; that for B15, 0.0803 KA relative to UGCAUGU.
With B16 the figure was 0.126 KA relative to UGCAUGU; with B17, 0.0693 KA relative to UGCAUGU.
Consider B18, for which the binding signal was 0.0889 KA relative to UGCAUGU.
For B19, the binding signal was 0.124 KA relative to UGCAUGU.
For B20, the binding signal was 0.0815 KA relative to UGCAUGU.
With B21 the figure was 0.111 KA relative to UGCAUGU.
The result for B22 reads 0.108 KA relative to UGCAUGU; that for B23, 0.0447 KA relative to UGCAUGU.
With B24 the figure was 0.0676 KA relative to UGCAUGU.
Consider B25, for which the binding signal was 0.105 KA relative to UGCAUGU.
The result for B26 reads 0.131 KA relative to UGCAUGU.
The result for B27 reads 0.105 KA relative to UGCAUGU.
Take B28: the binding signal is 0.119 KA relative to UGCAUGU.
B29: the binding signal was 0.0766 KA relative to UGCAUGU.
On to B30, for which the binding signal is 0.0995 KA relative to UGCAUGU.
The result for B31 reads 0.121 KA relative to UGCAUGU.
